Source: the supplement of paper PMC3334620
The full ranking holds about 33,000 sequences; the median of “E-score (-0.5 to 0.5)” is about -0.021, and the highest 2% start at about 0.32. The list shows a part of the results.

biological target: T1, Zap1 (UniProt P47043); experiment: PBM E-score (8-mer binding enrichment) (E-score (-0.5 to 0.5)); higher = stronger / more preferred TF binding; most listed sequences are background and not binding sites; conditions: protein concentration: 200 nM; construct: GST-full length
T1 sequence: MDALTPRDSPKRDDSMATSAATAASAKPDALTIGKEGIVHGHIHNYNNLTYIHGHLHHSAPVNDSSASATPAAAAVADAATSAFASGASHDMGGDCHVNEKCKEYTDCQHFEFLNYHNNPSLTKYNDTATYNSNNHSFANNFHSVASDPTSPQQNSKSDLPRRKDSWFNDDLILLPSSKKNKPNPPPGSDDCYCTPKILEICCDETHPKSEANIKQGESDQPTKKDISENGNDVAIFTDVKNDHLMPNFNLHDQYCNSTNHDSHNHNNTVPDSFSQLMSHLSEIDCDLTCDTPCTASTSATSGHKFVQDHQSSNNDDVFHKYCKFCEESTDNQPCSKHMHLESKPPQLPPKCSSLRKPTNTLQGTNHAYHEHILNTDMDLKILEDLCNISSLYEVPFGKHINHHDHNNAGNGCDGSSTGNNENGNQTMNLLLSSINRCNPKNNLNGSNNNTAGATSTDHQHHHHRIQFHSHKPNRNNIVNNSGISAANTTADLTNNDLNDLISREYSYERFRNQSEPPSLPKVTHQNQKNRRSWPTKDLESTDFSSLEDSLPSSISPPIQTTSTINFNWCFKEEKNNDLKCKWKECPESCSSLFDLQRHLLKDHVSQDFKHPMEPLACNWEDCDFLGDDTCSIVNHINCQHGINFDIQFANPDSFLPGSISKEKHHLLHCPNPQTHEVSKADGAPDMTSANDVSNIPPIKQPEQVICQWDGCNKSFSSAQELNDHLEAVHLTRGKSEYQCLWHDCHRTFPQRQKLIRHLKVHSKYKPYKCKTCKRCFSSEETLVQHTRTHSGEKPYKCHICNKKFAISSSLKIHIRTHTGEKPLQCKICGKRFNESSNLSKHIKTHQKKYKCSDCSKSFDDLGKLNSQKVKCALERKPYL
Summary of the method: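 Universal all-10-mer Agilent arrays, double-stranded by primer extension on fresh or once-stripped slides, were probed with about 100-200 nM GST-tagged yeast transcription factors made by PURExpress. Fluorescent anti-GST detected bound protein, and masliner normalised the scans. E-scores from the Universal PBM Analysis Suite were given to each ungapped eight-base word pooled with its reverse complement.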

Sequence	PBM E-score
AAACCTTT	0.263
ACTAGTGG	0.113
AGTCTGTC	-0.0794
AGGTGTGA	-0.0666
AGAGACGG	-0.037
AAGAGGGA	-0.199
ATAGCAAC	-0.0476
TCGCCGCA	0.078
CGACGCAA	-0.063
AACTTCTA	-0.119
ACAGAGAG	-0.27
TAATACCA	0.137
AGCGTCGG	-0.0562
CCAGTTTA	0.073
CGCAGGCG	-0.228
ACGAGACC	-0.00263
CCTCGTAA	0.179
CCATGTTA	0.1
AGCGATAG	-0.186
TAGGCGAA	-0.256
AGGACCTA	0.12
CAGGGCGG	-0.172
AACAACGA	0.00655
GCGGTCAC	0.313
AGGTCACA	0.359

Sequence	PBM E-score
AATGACAA	0.153
CACTCTGG	-0.151
AGCCAATA	0.00338
AAATAGTC	-0.181
GAGAAGGC	-0.135
CGAGGTGA	0.239
CACTCCCC	-0.275
CCATGGGG	0.28
GGAATCTA	-0.121
AACTTGGG	0.0268
GACCGCCA	-0.0676
AAGCTCGC	-0.0489
CGTGAGTA	0.0596
CAACCGCA	0.106
ATGATCTC	-0.0835
CACCACCC	0.186
CGTACTTA	-0.0746
AGCGCTGG	-0.109
AGGCCGAT	-0.144
AATCCATT	0.0141
AACTTCCA	0.092
ATACATCC	-0.135
CAATTTCC	-0.0587
GATGCAGC	-0.161
CAACTAGG	0.0465

Sequence	PBM E-score
ATATTGAG	0.0336
AAGCTAAC	0.146
CTCCCTGA	-0.198
CTACCTGA	0.00976
CACCAAAG	0.0401
ACGGAGAA	-0.179
AGACCCAT	-0.0274
CCGTCTTC	-0.0693
AATTGCCT	-0.0461
GGTGCAGA	-0.182
CACTTTGC	0.0546
CGGGAGCA	-0.281
ATGAACCC	0.15
TATGTCCA	-0.0504
GCAGCAAC	0.0522
CCCGTACA	-0.172
ACGCTTCT	-0.246
CGACTGAC	-0.223
GATAGCTA	-0.298
GTACCAGA	0.214
CAAATATC	0.104
ATTCCCCC	-0.291
ATCTCGTG	-0.0976
TGGTTTAA	0.242
ATACGCAG	-0.3

Sequence	PBM E-score
CACGCCCC	-0.137
ATCACTCC	-0.115
GCCAACAC	-0.121
GAGCTGGA	-0.162
GTGCAGTA	-0.136
CAATCTTC	0.161
AGTAAATA	0.12
AGATAGCG	-0.163
AACGACCG	-0.0501
ATCTCTGC	-0.101
AGGTTGTC	0.242
GTTTGCAA	0.0866
CGACGCTC	0.0879
ACTCAAGA	0.135
CTGCACAC	-0.13
ATATTTTC	0.195
ACGCTGTC	-0.107
AAGGCCTC	0.0146
CTACGAGC	-0.204
CCTAGTCG	-0.248
CTGGGCCC	-0.0741
CGATTCGA	0.166
CCGCGCAA	-0.0554
AATGCCCC	-0.0353
ACACTAGT	0.00423

Sequence	PBM E-score
ATTTACTG	0.13
ATGGCTTG	-0.169
TAACGCTA	0.00603
AACCTGTG	0.207
AATTGGGA	0.0996
AACAATGT	0.115
AAGTTGGG	-0.112
CAGGGAGA	-0.221
ACGACGGA	-0.113
CTCCGAGA	-0.0293
TACCTCTA	0.347
ATTTCGCG	0.104
GGAAACTA	-0.153
AACTCTGC	-0.0707
CGAGGCAG	-0.0981
ATTTCAAC	0.0908
TCATGCGA	-0.00209
GAAAACTC	-0.0414
ATTCGTTC	0.144
CTGAGATC	-0.24
AGAAGGAC	-0.176
ATCTGAGC	-0.0293
GTTCATTA	0.0845
GTTTAGAA	0.0417
GGCCCGCC	-0.259

Sequence	PBM E-score
CAGTCTTA	-0.136
CATTGCTC	-0.189
GAAAATAA	0.204
GAGACCCA	0.126
ACCAGGTG	-0.0712
AACTAAGC	0.0568
CTGGCGAA	-0.176
CCACAGGG	0.1
AAGTCGAG	-0.0695
AGAAGGTA	0.286
AGTTGAGC	-0.032
CCTATGAC	0.26
CGTGGTCC	0.0197
AAAATGCT	0.00547
ATCAGTGA	0.0209
GGAGTTAA	0.029
CGATGTCC	0.0405
CATTACTA	-0.0295
GAGGGGGC	-0.319
ATACGCCC	-0.2
ATCCACGA	0.156
CAAGCAGC	-0.0757
AGGTTCTA	0.0524
CTGACACA	-0.111
CACTGTAA	0.0817

Sequence	PBM E-score
ATGTTCAG	-0.0491
ACAAGAGT	0.0378
ATAAGAAG	0.15
CGCGTCTA	-0.228
AGCAACAG	-0.195
GCTCCGGA	-0.169
ACGGTCTA	-0.0875
GCACGGAC	-0.0076
ACGTATTG	-0.135
TGCTTACA	-0.16
AGACCCCA	0.281
ACCGGAGG	-0.0907
ACAGAGGA	-0.0172
ATGAGACG	-0.135
TGAGCCCA	-0.0912
ACGGATCG	-0.261
AGACCCGC	-0.054
AGGATCGG	-0.212
GATCAGCA	-0.0439
TAAATCAA	0.165
GAAATCAA	-0.0268
CAGTTCGC	0.0483
